Reference: PubChem BioAssay AID488969 (Vanderbilt High Throughput Screening Facility, 2010)
Over roughly 110,000 compounds, “z-score” has its median near -0.1; the highest 2% begin near 2. The list shows a part of the results. Activity calls are given as the source filed them.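 Rule for the calls: active = z-score in the third read window above 3 or below -3; inactive = the rest.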

The compounds below were run against Metabotropic glutamate receptor 8 (Rattus norvegicus) (UniProt P70579) (assay: mGluR8 Gi/Go-coupled signaling modulation – cell-based, rat, thallium flux, HTS, primary screen (AID 488969)). Details: HEK293 rat mGluR8, GIRK (G protein-gated inwardly rectifying potassium channel) thallium flux, FluoZin2; at 10 µM; stronger effect = higher value; submaximal glutamate (EC20) added with thallium.
UniProt P70579, sequence (P70579 whole entry, looked up): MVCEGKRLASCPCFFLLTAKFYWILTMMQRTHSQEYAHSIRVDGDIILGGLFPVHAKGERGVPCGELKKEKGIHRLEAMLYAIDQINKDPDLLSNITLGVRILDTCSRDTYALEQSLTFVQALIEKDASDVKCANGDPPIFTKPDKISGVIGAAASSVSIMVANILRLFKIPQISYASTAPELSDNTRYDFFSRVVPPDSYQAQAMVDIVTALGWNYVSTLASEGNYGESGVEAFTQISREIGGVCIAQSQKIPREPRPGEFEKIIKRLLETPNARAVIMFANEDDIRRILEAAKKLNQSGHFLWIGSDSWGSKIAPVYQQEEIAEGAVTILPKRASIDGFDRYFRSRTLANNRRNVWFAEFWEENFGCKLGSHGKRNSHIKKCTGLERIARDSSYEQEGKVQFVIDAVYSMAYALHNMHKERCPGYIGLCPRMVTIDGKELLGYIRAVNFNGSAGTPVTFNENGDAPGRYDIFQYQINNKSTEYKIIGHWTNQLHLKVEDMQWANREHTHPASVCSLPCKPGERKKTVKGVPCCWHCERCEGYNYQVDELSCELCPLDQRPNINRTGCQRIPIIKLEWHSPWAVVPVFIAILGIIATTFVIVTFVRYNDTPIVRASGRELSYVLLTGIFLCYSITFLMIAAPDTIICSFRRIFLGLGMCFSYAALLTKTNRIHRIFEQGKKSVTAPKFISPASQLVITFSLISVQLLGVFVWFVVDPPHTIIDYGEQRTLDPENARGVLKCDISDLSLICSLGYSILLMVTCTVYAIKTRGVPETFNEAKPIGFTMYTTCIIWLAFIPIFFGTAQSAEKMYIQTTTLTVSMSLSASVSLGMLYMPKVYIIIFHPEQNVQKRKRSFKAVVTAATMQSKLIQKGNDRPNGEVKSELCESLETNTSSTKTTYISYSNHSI

Row | SMILES | z-score
1 | Cc1ccc(OCCN2CCN(CC(O)Cn3c4ccccc4c4ccccc43)CC2)cc1 (stereo not given) | 0.113
2 | CC(C)c1nc2oc3c(=O)[nH]cnc3c2c2c1CCC2 | -0.382
3 | O=C(NCc1cccnc1)c1cc(-c2ccccc2)on1 | -0.456
4 | CCOC(=O)Cc1nnc(NC(=O)COc2ccc(OC)cc2)s1 | 0.347
5 | Cc1ccccc1Nc1nnc(SCC(=O)NCc2ccco2)s1 | 0.00959
6 | Cc1cc(C)c2c(n1)nn1c(N3CCN(c4ccccc4C)CC3)cc(C)nc21 | 0.339
7 | O=C(Nc1ccc(Cl)c(Cl)c1)c1cccc(S(=O)(=O)NCc2cccnc2)c1 | 0.107
8 | CC(=O)NC1C(=O)Nc2c(C)cc(C)cc21 (stereo not given) | -0.157
9 | CN1CCN(C(=O)/C(=C\c2ccccc2)c2ccccc2)CC1 | -1.59
10 | Cc1ccc(N=C(NO)c2nonc2N)cc1 | -1.5
11 | COc1cccc(CC(=O)Nn2c(C)nc3ccccc3c2=O)c1 | -0.115
12 | COC(=O)CCSc1cc([N+](=O)[O-])cc2c1c(C1OCCO1)nn2-c1ccccc1 | -1.05
13 | Cc1nn(Cc2ccc(F)cc2)c(Cl)c1/C=N/NC(=O)c1cccnc1 | 0.00317
14 | Cc1ccc(NC(=O)c2nc(C)n(-c3ccc([N+](=O)[O-])cc3)n2)cc1 | -0.152
15 | COCCn1c(=S)[nH]c2cc(C(=O)NCCCN3CCOCC3)ccc2c1=O | -0.168
16 | COc1ccc(-c2nc(-c3ccc(NC(=O)c4ccncc4)cc3)no2)cc1OC | -0.932
17 | Cc1cc(S(=O)(=O)NCC(C)C)ccc1OCC(=O)NCC1CCCO1 (stereo not given) | -0.457
18 | CCN1CCN(C(=O)CN(c2ccc(C)cc2)S(C)(=O)=O)CC1 | -0.355
19 | CCCCC(=O)NCCNc1nc2c(c(=O)n(C)c(=O)n2C)n1Cc1ccc(F)cc1 | 0.238
20 | CC(C)CC(=O)NC(=S)Nc1cccc(NC(=O)c2ccccc2)c1 | -0.194
21 | COc1ccc(OC)c(N(CC(=O)Nc2cccnc2)S(=O)(=O)c2ccc(OC)c(OC)c2)c1 | 0.28
22 | Cc1ccsc1C(=O)Nc1cc(C(C)(C)C)nn1-c1ccccc1 | -1.34
23 | Cc1ccc(OCC(=O)N/N=C\c2cn(C)c3ccccc23)c([N+](=O)[O-])c1 | -0.107
24 | CCOC(=O)N1CCC(NC(=O)C2CCCN(c3nc4ccccc4o3)C2)CC1 (stereo not given) | 0.0747

Row | SMILES | z-score
25 | CN(C)c1cccc(C(=O)OC(C(=O)Nc2ccc([N+](=O)[O-])cc2Br)c2ccccc2)c1 (stereo not given) | -0.391
26 | CCOC(=O)N1CCN(CC(O)COc2c(C)cccc2C)CC1 (stereo not given) | 0.957
27 | Cc1nn(C)c(Oc2ccccc2)c1CCNS(=O)(=O)c1ccc(Cl)cc1 | -0.479
28 | CCc1nnc(NC(=O)CCC(=O)NCCc2ccc(OC)c(OC)c2)s1 | -0.413
29 | CN1CCOCCOCCN(C)C(=O)N2CCOCCOCCN(CCOCC2)C1=O | 1.25
30 | CCCCCn1c(=O)c(C(=O)c2ccccc2)nc2ccccc21 | -0.844
31 | O=C(Nc1cc(S(=O)(=O)N2CCOCC2)ccc1Cl)C(=O)c1c(-c2ccccc2)cc2ccccn12 | -0.587
32 | COc1cccc(NC(=O)c2ncn[nH]2)c1 | -0.079
33 | Cc1cccc(C=Nc2ccc3c4c(cccc24)CC3)c1O | 0.463
34 | O=c1cc(N2CCCCC2)c(-c2ccccc2)nn1Cc1ccccc1Cl | 0.0687
35 | O=C(NCC1CCCO1)C1CC(=O)N(c2ccc(F)c(Cl)c2)C1 (stereo not given) | 0.118
36 | CCOc1ccc(S(=O)(=O)N2CCc3ccccc3C2)cc1 | 0.0269
37 | CCc1nnc(NC(=O)c2cc3c(s2)CCCCC3)s1 | 0.127
38 | O=C(OCc1ccccc1)c1ccc2c(c1)-c1ccccc1C2=O | 0.088
39 | Cc1nnc(SCC(=O)Nc2ccc(N3CCOCC3)cc2)o1 | 0.17
40 | C=CCn1cc(/C=N\NC(=O)c2cc3c(ccc4ccccc43)o2)c2ccccc21 | -0.0727
41 | CCCn1nnnc1NC(=O)COc1ccc(CC)cc1 | 0.101
42 | CCCCNC(=S)N(C)/N=C/c1c(F)cccc1F | -0.077
43 | O=C(O)CCN1C(=O)c2ccc(NC(=O)CSCc3ccccc3)cc2C1=O | -0.13
44 | OCCOCCn1c2ccccc2c2ccccc21 | -0.0322
45 | CC(C)c1cccc(C(C)C)c1NC(=O)c1ccc(OCC(=O)NCc2ccccc2)cc1 | -0.175
46 | c1ccc(-c2noc(C34CC5CC(CC(C5)C3)C4)n2)nc1 | 0.61
47 | O=C(NN=C1c2ccccc2-c2ccccc21)c1cccc(Br)c1 | active: 4.19
48 | CCCOc1ccc(C2C(=O)N(C3CCCCC3)CC(=O)N2CCC)cc1OC (stereo not given) | -0.518

Row | SMILES | z-score
49 | O=C(Nc1ccncc1)C1COc2ccccc2O1 (stereo not given) | 0.407
50 | O=C(Cc1coc2ccc3ccccc3c12)N1CCc2ccccc21 | -0.198
51 | CCOC(=O)CC(=O)Nc1ccc(C(=O)OCC)cc1 | 0.497
52 | O=C(Cn1cccc1C(=O)c1ccccc1)NCc1cccnc1 | -1.16
53 | Cc1ccc(S(=O)(=O)N2CCCN(S(=O)(=O)c3ccc(C)c(C)c3)CC2)cc1C | -0.0969
54 | Cn1nccc1C(=O)NC(=S)Nc1sc2c(c1C#N)CCCCC2 | -0.67
55 | CN(C)S(=O)(=O)c1ccc(NC(=O)Cn2c(-c3ccccc3)noc2=O)cc1 | 0.954
56 | Cc1ccc(C(=O)N/C(=C/c2cccs2)C(=O)N2CCCCCC2)cc1 | -0.312
57 | COc1ccc(-c2nnc3ccc(SCC(=O)Nc4nccs4)nn23)cc1OC | -0.661
58 | CC(=O)CS(=O)(=O)c1ccc(Oc2ccc(S(=O)(=O)CC(C)=O)cc2)cc1 | 0.562
59 | Cc1ccc(C2c3c(oc4ccccc4c3=O)C(=O)N2c2nnc(C)s2)o1 (stereo not given) | -0.281
60 | Cc1ccc(-c2cc(C(=O)Nc3c(C#N)cnn3C)no2)cc1 | 0.0682
61 | COc1ccc(C(=O)NCCc2nnc(SCC(=O)Nc3ccc(Br)cc3)n2C)cc1 | -0.448
62 | CC(C)c1c(O)nc(SCCC(=O)O)[nH]c1=O | -0.201
63 | Cc1ccccc1-n1nnc2c(=O)oc3ccccc3c21 | active: -4.68
64 | Cc1ccc(S(=O)(=O)Nc2c3ccccc3nc(=O)n2-c2ccccc2)cc1 | 0.00219
65 | CC1CC(C)CN(C(=O)CSc2nc(Cc3cccs3)nc3ccccc23)C1 (stereo not given) | 0.118
66 | CC(C)CCNC(=O)c1ccc2c(c1)ncn2C1CCCCC1 | -0.265
67 | COc1ccccc1CNC(=O)c1ccc(-c2ccccc2)cc1 | -0.243
68 | CC(C)(C)c1ccc(C(=O)N2CCC(C(=O)NCCC3=CCCCC3)CC2)cc1 | -0.146
69 | O=C(c1ccc(Br)o1)N1CCN(c2ccccc2F)CC1 | -0.193
70 | CN1CCN(c2nc3c(c(=O)[nH]c(=O)n3C)n2CCOc2ccccc2)CC1 | -0.134
